Laboratory results from the supplement of paper PMC12632987.
The full ranking holds about 2,300 sequences; the median of “median log2 fold change of GCK-ALFA target abundance (FLAG IP / Myc IP barcode read proportion)” is about 0.095, and the lowest 2% start at about -0.47. The list shows a part of the results.

B1: LC3A_147_510 (protein)
chain: YLVEIDVDLLVKNAVEEVKKRFKEIVEKLKKKGYKVELEIKEEKIDENTYYVEVTIKIYAETKEEAEKAANETLSLLDEMLEELKDEILGSLISVDIEET
B2: LC3A_127_177 (protein)
chain: EVEELLKRVIELAERLSKLLQDPNATLEELLKQAEELLKAAEELLKLDPRAEPVLEDAKELVKLLKQAKTADAATREQLLEQAELLVEGILVDAELLLLR
B3: LC3A_3_1706 (protein)
chain: MEELLKEAREILEKHGKSEETIEAALEALKALLEKGYEEAAKTLLELLKESEDLSDEILLWFFEEVKKVVEDPSLNEEEVIEKIKELYQIAKNEQEIEEL
B4: LC3A_3_1365 (protein)
chain: MEEEIEELLKYLKSKGKSEETLKAVRETLEALIEKGYYEAARTFIELMRELSHLPDELLLDLAEEVLEKVKTEDLSEEELIEYIKSLARIALNEAEIEEL
B5: LC3A_45_1995 (protein)
chain: MALATIDILVPRELAEEAYELIKEIAKEVEKEYNGKVKVDWEVLEKTYEATKDEEEVLFEVKIYAPNEELALDAADKIVDRLSERLGNRIAAIISVEEVE
B6: LC3A_28_884 (protein)
chain: GKALESAKKALEEVKKAMAAGNKEPLVLEVDAPSEEEEVEEFIKLLDEIAEEASKGRKVTVVIDIDEEVSEENRNKIIDHAEEIEEKYPNVTVIIALPEE
B7: LC3A_28_853 (protein)
chain: SKVEEQIAAARAELEAAAAAGEPVTLVLTVSGDLTEEEIEEFIEGLEELAALAEEHGGHSIIINVEEGVKEEHINEIMDAAERIEEKYPKVTVIIALPEE
B8: LC3A_3_1711 (protein)
chain: GEELIEEAEKILKEKGLSEETKKAVLEALKALLEKGYINAAKELIKLLKEAKDLSDEVILDFAKDVLEYVKTEDVSEEETIKKIKEEYEIAKNEEEIEEL
B9: LC3A_102_135 (protein)
chain: KVEEILERAKERLRERLEEFFEEHPEFSEEEKERALELGEEAIEAAAESAITEEQHGFVDIVAEDKRLEALEELREIHPELAKIAEEAIKELAEEIKKLF
B10: LC3A_28_792 (protein)
chain: MEIEKELKKAKEEAEKALEKGEEVTLTITVTGKTTLEDAKKLVEGLKEIVEKAKDLPRVNIVIDVDGKISPEVLKVLADGGDELEEKYPNVNVVIALDEE
B11: LC3A_28_1278 (protein)
chain: SALDKSLAAAKAEAEQAKANKESAVITIKVPGTATEEDIEKVIKALEEIAEILKDIPNQAIVVDVDGKVPQEHIDKIADKAEEIEEKYPNITVIIALGEE
B12: LC3A_128_229 (protein)
chain: NETREEIKRLLEEAKKILEAAKSEELPKELWEAALKAIEEAIKLVEENAPVEEIKKAIDEAIKKTEELYLYAKSKGLPEATDIAEALILLNQAWLLAQEL
B13: LC3A_3_1860 (protein)
chain: MEAIIARILALLKELGRSEETIAAARALAEALAARGYEAALETLLAELEKLKDVSDEILLAMFEDLLAALATRDLSEEELIALIKEEATVALNEQEIEEL
B14: LC3A_3_1357 (protein)
chain: MDAAIEAMLAELRAAGHSDETIAAAERAARALAARGYEAALETFIALMRELAHLPDELLLALAEDVLRAVEEEDLSEEELIEFIRSEARVARNEAEIEEL
B15: LC3A_16_523 (protein)
chain: AAELQARLDLLTAASNVPEDDLEAFAALLKELAPERAAAIDAALQRPDAALLLHREAAAAARELAERARAAGDEETVTQAELIESDFEVRAALAEVRLEE
B16: LC3A_3_1576 (protein)
chain: SEEFIEEAEKRLREAGLSEKVIEKAREVLELLLEKGWLETAELVVEGLLELKDAPEELLLEALEEVKEVAEDESLSEEEKLERVKEILSTAKSEAEIIEL
B17: LC3A_free_46_2297 (protein)
chain: YIVNIDVDLYGLTKEQAEKFVEELKKELEKIAKEYNVEVKIEVEIEKNEDGTYYVKINITVKAETKEKAEEVKNKIIEEIDKLAEKYGASYIISYEIEEE
B18: LC3A_141_361 (protein)
chain: ATKKETFTLTAKTEEEAIEVAEKIKEKIREFMEKTGAKEVKVTVTITAYNKKTGEVKTETIVETVTPENLDLFEEGLLIELLSYFEKGADEVKVTVTIES
B19: LC3A_28_859 (protein)
chain: SETRESIEKARKELEEAKEKGEPVTIEITVTEDVTEEEVEEVIELIELAAEVSKEVPDVSVIIDFDGEIDQEKLDRILNAAEEAIEKNPKLNVIFALDEK

What follows are binders tested against MAP1LC3A, Q9H492 (assay: median log2 fold change of GCK-ALFA target abundance (FLAG IP / Myc IP barcode read proportion) (log2 ratio); each designed protein is fused to an ALFA-tag nanobody in HEK293 cells to bring the named protein to FLAG-tagged glucokinase (GCK); Myc marks an untargeted standard; higher = target protein stabilised (more abundant)). Settings: target protein: 3xFLAG-MCP-GCK-ALFA reporter; HEK293 landing pad (RPLP).
Procedure, shortened: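 Sequencing of reverse-transcribed, amplified circular RNA barcodes from anti-FLAG and anti-Myc immunoprecipitates provided the readout for an ALFA-nanobody-fused binder library recombined into HEK293 landing-pad cells. Those cells were induced with 2 μg mL^−1 doxycycline, transfected with a plasmid expressing a FLAG-tagged target and a Myc-tagged standard, and lysed after 48 h. Target abundance is the per-binder median log2 ratio of FLAG to Myc barcode read proportions. Only barcodes at a proportion of ≥10^−7 in both replicates and binders with ≥3 barcodes per replicate were kept, with a 10^−6 pseudocount added before the two replicates were pooled.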
In the case of B1, the “median log2 fold change” value is reported as -0.119. In the case of B2, the “median log2 fold change” value is reported as 0.149. In the case of B3, the “median log2 fold change” value is reported as 0.47. B4 was tested, and the “median log2 fold change” value was 0.265. With B5 the “median log2 fold change” value was -0.0958. For B6, the “median log2 fold change” value was -0.247. B7 was tested, and the “median log2 fold change” value was 0.185. B8 was tested, and the “median log2 fold change” value was -0.0281. With B9 the “median log2 fold change” value was -0.224. For B10, the “median log2 fold change” value was 0.428. In the case of B11, the “median log2 fold change” value is reported as -0.00815. B12 was tested, and the “median log2 fold change” value was -0.0692. B13 was tested, and the “median log2 fold change” value was 0.346. For B14, the “median log2 fold change” value was 0.232. B15 was tested, and the “median log2 fold change” value was 0.256. With B16 the “median log2 fold change” value was 0.249. For B17, the “median log2 fold change” value was 0.126. In the case of B18, the “median log2 fold change” value is reported as -0.0634. For B19, the “median log2 fold change” value was 0.187.
